Source: a collection of fitness landscapes (doi:10.1016/j.celrep.2020.107928)
The full ranking holds about 81,000 sequences; the median of “one-hybrid fitness for binding NBS DNA” is about -0.1, and the highest 2% start at about 0.36. The list shows a part of the results.

B1: Caulobacter ParB omega fusion; a variant is named by its letters at X, in order, B8GW30 (parent)
chain: MESVVVGEPGMSEGRRGLGRGLSALLGEVDAAPAQAPGEQLGGSREAPIEILQRNPDQPRRTFREEDLEDLSNSIREKGVLQPILVRPSPDTAGEYQIVAGERAWRAAQRAGLKTVPIMVRELDDLAVLEIGIIENVQRADLNVLEEALSYKVLMEKFERTQENIAQTIGKSXSHVANXMRLLXLPDEVQSYLVSGELTAXHARAIAAAADPVALAKQIIEGGLSVRETEALARKAPNLSAGKSKGGRPPRVKDTDTQALESDLSSVLGLDVSIDHRGSTGTLTITYATLEQLDDLCNRLTRGI

Variants of: B1
Experiment: one-hybrid fitness for binding NBS DNA (the Noc-binding site; scaled: cognate 1, non-cognate 0); higher = stronger binding
Settings: with NBS DNA site
Outline: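 Pre- and post-selection plasmids were Illumina-sequenced, three replicate libraries were pooled, and any variant with under 10 reads was removed. The libraries were Caulobacter ParB with four specificity codons randomised, selected in E. coli USO through a HIS3 reporter whose site is 19 bp from the promoter. Cells grew 48 hours at 37°C on M9 without histidine, with 0.1 mM IPTG and 5 mM 3-AT. Fitness is the log change in variant-to-wild-type read ratio, rescaled against cognate and non-cognate.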

Row | Variant | one-hybrid fitness for binding NBS DNA
1 | QHRY | 0.488
2 | AHQE | ≤ 0.2
3 | FYDT | ≤ 0.2
4 | QSSM | ≤ 0.2
5 | HKKK | ≤ 0.2
6 | HTCK | ≤ 0.2
7 | DPFC | ≤ 0.2
8 | IVTF | ≤ 0.2
9 | GGDS | ≤ 0.2
10 | VMPY | ≤ 0.2
11 | TVCL | ≤ 0.2
12 | QKRI | 0.301
13 | TAYQ | ≤ 0.2
14 | KSLT | ≤ 0.2
15 | NEGS | ≤ 0.2
16 | RMQR | 0.411
17 | LHEP | ≤ 0.2
18 | GSPA | ≤ 0.2
19 | YLTG | ≤ 0.2
20 | PRHH | ≤ 0.2
21 | RFAL | ≤ 0.2
22 | RWHI | ≤ 0.2
23 | YRTY | ≤ 0.2
24 | MLQN | ≤ 0.2
25 | QTQV | 0.207
26 | QTVD | ≤ 0.2

Row | Variant | one-hybrid fitness for binding NBS DNA
27 | GKHS | ≤ 0.2
28 | HYYD | ≤ 0.2
29 | GREL | ≤ 0.2
30 | VVDA | ≤ 0.2
31 | WEPR | ≤ 0.2
32 | LSLK | ≤ 0.2
33 | YRDA | ≤ 0.2
34 | MWDF | ≤ 0.2
35 | EAKG | ≤ 0.2
36 | KYRL | ≤ 0.2
37 | HPTV | ≤ 0.2
38 | QWWS | ≤ 0.2
39 | NRSM | ≤ 0.2
40 | RKIM | ≤ 0.2
41 | HNQS | ≤ 0.2
42 | YIFC | ≤ 0.2
43 | GLMS | ≤ 0.2
44 | QHNT | 0.49
45 | SLTA | ≤ 0.2
46 | MYHG | ≤ 0.2
47 | WFLL | ≤ 0.2
48 | SGPS | ≤ 0.2
49 | MCTG | ≤ 0.2
50 | RMKI | ≤ 0.2
51 | WNMS | ≤ 0.2
52 | IHCS | ≤ 0.2

Row | Variant | one-hybrid fitness for binding NBS DNA
53 | FCAT | ≤ 0.2
54 | HLLT | ≤ 0.2
55 | RCEI | ≤ 0.2
56 | QFVG | ≤ 0.2
57 | QIKF | ≤ 0.2
58 | SYMT | ≤ 0.2
59 | RPLV | ≤ 0.2
60 | WVGG | ≤ 0.2
61 | HKHF | ≤ 0.2
62 | NIPG | ≤ 0.2
63 | RLNC | ≤ 0.2
64 | NKKM | ≤ 0.2
65 | MYNT | ≤ 0.2
66 | KTFC | ≤ 0.2
67 | WYQT | ≤ 0.2
68 | LTDL | ≤ 0.2
69 | QHKM | 0.379
70 | THSV | ≤ 0.2
71 | VCCW | ≤ 0.2
72 | PPIC | ≤ 0.2
73 | PEQL | ≤ 0.2
74 | RRVA | 0.571
75 | TECA | ≤ 0.2
76 | MWQG | ≤ 0.2
77 | QVQA | ≤ 0.2
78 | HWRC | ≤ 0.2

Row | Variant | one-hybrid fitness for binding NBS DNA
79 | VWKC | ≤ 0.2
80 | AYEW | ≤ 0.2
81 | STPC | ≤ 0.2
82 | SKSP | ≤ 0.2
83 | PYNY | ≤ 0.2
84 | QGKV | ≤ 0.2
85 | QQFG | ≤ 0.2
86 | FKTL | ≤ 0.2
87 | MDTT | ≤ 0.2
88 | PAWT | ≤ 0.2
89 | EYWG | ≤ 0.2
90 | YARS | ≤ 0.2
91 | RRIS | 0.661
92 | PYSY | ≤ 0.2
93 | KPMC | ≤ 0.2
94 | CCTC | ≤ 0.2
95 | QPQN | ≤ 0.2
96 | YPSV | ≤ 0.2
97 | TINF | ≤ 0.2
98 | LHYF | ≤ 0.2
99 | EYES | ≤ 0.2
100 | NMTD | ≤ 0.2
101 | LLSV | ≤ 0.2
102 | RKLG | ≤ 0.2
103 | SVPG | ≤ 0.2
104 | MMYG | ≤ 0.2

Row | Variant | one-hybrid fitness for binding NBS DNA
105 | RGQI | ≤ 0.2
106 | RHMN | ≤ 0.2
107 | TTWH | ≤ 0.2
108 | DKTE | ≤ 0.2
109 | CSKF | ≤ 0.2
110 | CNDW | ≤ 0.2
111 | KLQR | ≤ 0.2
112 | MQMR | ≤ 0.2
113 | EIAS | ≤ 0.2
114 | WKPV | ≤ 0.2
115 | NNAG | ≤ 0.2
116 | TTTM | ≤ 0.2
117 | DCAC | ≤ 0.2
118 | CNDT | ≤ 0.2
119 | WYYR | ≤ 0.2
120 | PWLE | ≤ 0.2
121 | QCCT | 0.521
122 | SAVC | ≤ 0.2
123 | RIFS | 0.214
124 | AMDN | ≤ 0.2
125 | ITTY | ≤ 0.2
126 | MHAR | ≤ 0.2
127 | TCWT | ≤ 0.2
128 | QDPP | ≤ 0.2
129 | NEAT | ≤ 0.2
130 | RWND | ≤ 0.2

Row | Variant | one-hybrid fitness for binding NBS DNA
131 | CHLH | ≤ 0.2
132 | VLGP | ≤ 0.2
133 | VKQT | ≤ 0.2
134 | YSGS | ≤ 0.2
135 | LLAF | ≤ 0.2
136 | ACDV | ≤ 0.2
137 | RGKG | ≤ 0.2
138 | SGMN | ≤ 0.2
139 | NDGR | ≤ 0.2
140 | IVNM | ≤ 0.2
141 | KMDG | ≤ 0.2
142 | MRFL | ≤ 0.2
143 | LGMR | ≤ 0.2
144 | PGNG | ≤ 0.2
145 | MAKG | ≤ 0.2
146 | ETER | ≤ 0.2
147 | TTYT | ≤ 0.2
148 | PTFL | ≤ 0.2
149 | QAYC | ≤ 0.2
150 | EAPF | 0.532
151 | MWLT | ≤ 0.2
152 | FHAP | ≤ 0.2
153 | TKNL | ≤ 0.2
